Results as given in PubChem BioAssay AID1476 (National Center for Advancing Translational Sciences (NCATS), 2009).
“And” between values parts separate entries of the source, which are not always exact repeats. Equal values may be shown once. Hit rate of the full screen: of about 200,000 compounds, about 4,500 (2.2%) were called active. Inconclusive means that the source gave no clear call. Such entries were picked first, then a sample of the others. Calls follow the shape of the dose curve; as a rule, active = well fitted inhibition curve with a large enough effect; inconclusive = small, poorly fitted or top-dose-only effect, or effect the other way; inactive = flat fitted curve, though single readings scatter. A potency beside an inconclusive call is a rough fit, not a confirmed value.

Target: Cruzipain (Trypanosoma cruzi) (UniProt P25779)
Chain of UniProt P25779 (P25779 whole entry, looked up): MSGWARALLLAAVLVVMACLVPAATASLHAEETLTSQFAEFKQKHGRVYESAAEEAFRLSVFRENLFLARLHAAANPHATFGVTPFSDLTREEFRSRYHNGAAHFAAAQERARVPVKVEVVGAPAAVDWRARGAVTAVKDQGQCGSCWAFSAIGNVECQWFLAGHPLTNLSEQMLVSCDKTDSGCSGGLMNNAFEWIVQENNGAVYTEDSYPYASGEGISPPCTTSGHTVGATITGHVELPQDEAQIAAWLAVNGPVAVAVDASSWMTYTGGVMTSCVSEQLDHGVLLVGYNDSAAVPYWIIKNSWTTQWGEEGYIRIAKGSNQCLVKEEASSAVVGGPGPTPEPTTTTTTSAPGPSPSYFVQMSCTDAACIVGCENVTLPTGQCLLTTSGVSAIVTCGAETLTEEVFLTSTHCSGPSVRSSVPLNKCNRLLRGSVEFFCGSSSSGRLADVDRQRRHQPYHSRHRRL
Test: qHTS Assay for Promiscuous and Specific Inhibitors of Cruzain (without detergent); also: nearly all actives have a fitted effect of over 40% in size;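 as to max response, negative = inhibition: plate controls were enzyme without inhibitor for no effect and buffer without enzyme for full effect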
Conditions: purified cruzain, Z-FR-AMC fluorescence, no detergent
Method in brief: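 Detergent-free condition (0.00005% Triton X-100) in acetate buffer pH 5.5 with DTT. 1.5 nM enzyme and compound were pre-mixed 15 min, then 2 uM Z-FR-AMC substrate added; reaction progress from fluorescence change between first and third reads (60 s).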
Potency is read from the fitted curve at half-maximal effect; tags tell the direction and shape of the fitted curve.

| SMILES | Potency | max response, negative = inhibition |
| --- | --- | --- |
| O=C(Nc1nc2ccc(Cl)cc2s1)c1ccc(Br)o1 | active: 20 µM |  |
| CC1CCCCN1S(=O)(=O)c1ccc(C(=O)Nc2ccccc2-c2nc3ccccc3[nH]2)cc1 (stereo not drawn) | inconclusive: 6.31 µM [inhibitor, partial curve] |  |
| COC(=O)[C@@]1(Cc2ccc(OC)cc2)[C@H]2c3cc(C(=O)N(C)C)[nH]c3C[C@H]2CN1C(=O)c1ccccc1 | inconclusive: 39.8 µM [activator, single point] and inconclusive: 25.1 µM [activator, single point] |  |
| COc1ccc(CNC(=O)c2cc(-c3cccc(Cl)c3)on2)cc1 |  | inactive: -8.09% |
| N#CCCn1cc(C(=O)Nc2ccccc2Br)c(-c2cc3ccccc3o2)n1 | inconclusive: 25.1 µM [activator, single point] |  |
| CC(C)CC(=O)Nc1ccc(S(=O)(=O)Nc2cc3c(cc2N2CCOCC2)n(C)c(=O)c(=O)n3C)cc1 | inconclusive: 31.6 µM [activator, single point] |  |
| COc1cc2nc(SCc3c(C)noc3C)n(CCC3=CCCCC3)c(=O)c2cc1OC | inconclusive: 20 µM [activator, partial curve] |  |
| CCSC[C@@H](N)C(=O)O |  | inactive: -2.96% |
| O=C(Nc1ccccc1N1CCN(C(=O)c2ccc(Cl)cc2)CC1)c1ccc2c(c1)OCO2 | inconclusive: 15.8 µM [inhibitor, single point] |  |
| COc1ccccc1NC(=O)N1CCCC1C(=O)NCc1ccccc1 (stereo not drawn) |  | inactive: 2.59% |
| COc1ccc(C)cc1NC(=O)C1CCN(S(=O)(=O)c2ccc3[nH]c4c(c3c2)CCCCC4)CC1 | active: 15.8 µM |  |
| Cc1cccc(NC(=O)Cn2c(=O)n(CCC(=O)NC3CCCC3)c(=O)c3ccccc32)c1 | inconclusive: 39.8 µM [inhibitor, single point] |  |
| Cc1cc(C)cc(NC(=O)CCCN2C(=O)COc3ccc(C)cc32)c1 | inconclusive: 39.8 µM [activator, single point] |  |
| CCOC(=O)c1c(C)[nH]c(O)c1C=Nc1ccc(Cl)cc1 | inconclusive: 39.8 µM [activator, single point] |  |
| CC(=O)Nc1ccc(NC(=O)c2ccc(COc3ccc(Cl)cc3Cl)o2)cc1 | inconclusive: 25.1 µM [activator, single point] |  |
| Nc1nnc(SCC(=O)Nc2ccc3nc(SCC(=O)Nc4ccccc4)sc3c2)s1 | inconclusive: 31.6 µM [inhibitor, single point] |  |
| Cc1ccc(NC(=O)C2CC(=O)N/C(=N/N=C/c3ccco3)S2)cc1 (stereo not drawn) | inconclusive: 25.1 µM [inhibitor, single point] |  |
| COc1ccccc1/C=C(/CC(=O)NCc1ccc(F)cc1)c1nc2ccccc2s1 | active: 15.8 µM |  |
| CC(=O)c1ccc(NC(=O)C(C)n2nc(-c3ccccc3)c3cc(Cl)ccc32)cc1 (stereo not drawn) | inconclusive: 39.8 µM [inhibitor, single point] |  |
| COc1cc2c(cc1OC)C(COc1ccc(F)cc1)N(C(=O)c1ccc(S(=O)(=O)N3CCCC3)cc1)CC2 (stereo not drawn) | inconclusive: 39.8 µM [activator, single point] |  |
| COc1cc(C2CC(=O)N(Cc3ccc(F)cc3)c3ccccc3S2)cc(OC)c1OC (stereo not drawn) | inconclusive: 20 µM [activator, partial curve] |  |

| SMILES | Potency | max response, negative = inhibition |
| --- | --- | --- |
| O=C1c2ccccc2OC2(C=Cc3ccccc3O2)N1Cc1ccccc1 (stereo not drawn) | active: 25.1 µM |  |
| COC(=O)c1cc(NC(=O)[C@H](CCS(C)(=O)=O)N2Cc3ccccc3C2=O)cc(C(=O)OC)c1 | inconclusive: 39.8 µM [activator, single point] |  |
| COc1cc(O)c(C(=O)O)c(O)c1 |  | inactive: -3.16% |
| COc1nc(-c2ccc(C)cc2)ccc1-c1noc(-c2cccnc2)n1 | inconclusive: 25.1 µM [activator, single point] |  |
| Cc1ccc2c(c1)N(C(=O)CCC(=O)NCc1cccs1)CCO2 |  | inactive: -0.645% |
| COc1cc(N2C(=O)CSC23C(=O)N(Cc2ccc(C)cc2)c2ccccc23)cc(OC)c1OC (stereo not drawn) | inconclusive: 39.8 µM [activator, single point] |  |
| CCCCn1c(O)c(C(C)=NCc2cc(OC)cc(OC)c2)c(=O)[nH]c1=O | inconclusive: 39.8 µM [activator, single point] |  |
| COc1cc(OC)c(OC)cc1/C=N/NC(=O)CC1C(=O)NN=C1C (stereo not drawn) | inconclusive: 25.1 µM [inhibitor, single point] |  |
| CCOC(=O)c1ccc(NC(=O)CSc2nnc(CNC(=O)c3ccc(OC)cc3)n2CC)cc1 | inconclusive: 39.8 µM [activator, single point] |  |
| O=C(Nc1ccc(O)c2c(=O)cc(-c3ccccc3Cl)oc12)c1cccc(Cl)c1 | inconclusive: 39.8 µM [inhibitor, single point] |  |
| CCOC(=O)c1sc(NC(=O)c2ccc(S(=O)(=O)N3CCCCCC3)cc2)nc1-c1ccccc1 | inconclusive: 39.8 µM [inhibitor, single point] |  |
| Cc1ccccc1Cn1nnc2c(=O)[nH]c(C3CCCN(C(=O)c4ccc(F)cc4)C3)nc21 (stereo not drawn) | inconclusive: 31.6 µM [activator, single point] |  |
| Cc1ccc(NC(=O)N(Cc2cccs2)Cc2cc3cc4c(cc3[nH]c2=O)OCO4)cc1 | inconclusive: 39.8 µM [inhibitor, single point] |  |
| CC(=O)[C@H]1CC[C@H]2[C@@H]3C=CC4=CC(=O)CC[C@@]4(C)[C@H]3CC[C@]12C |  | inactive: -11.8% |
| CCCOc1ccc(C(=O)N2CC3(CC(c4cccc(NC(=O)[C@@H]5CCC(=O)N5)c4)=NO3)C[C@H]2C(=O)NC2(C(N)=O)CC2)cc1 (stereo partly drawn) | inconclusive: 39.8 µM [activator, single point] |  |
| O=C1CC(N2CCC(Cc3ccccc3)CC2)C(=O)N1CCc1ccccc1 (stereo not drawn) | inconclusive: 31.6 µM [activator, single point] |  |
| CN(C)S(=O)(=O)c1ccc(NC(=O)c2cc(-c3cccs3)nc3ccccc23)cc1 | inconclusive: 31.6 µM [inhibitor, single point] |  |
| CCOC(=O)CN(Cc1ccccc1)C(C(=O)NC1CCCCC1)c1ccc(C)cc1 (stereo not drawn) |  | inactive: -10.2% |
| CCC(=O)N1CCc2cc(S(=O)(=O)NC(C(=O)NCc3ccccc3Cl)C(C)C)ccc21 (stereo not drawn) |  | inactive: -12.2% |
| COc1ccc(CNC(=O)c2ccc(-c3nc(CSc4ccc(C)cc4)c(C)o3)cc2)cc1OC | inconclusive: 39.8 µM [activator, single point] |  |
| Cc1nn(C(=O)c2ccccc2)c(C)c1S(=O)(=O)N1CCOCC1 |  | inactive: 6.67% |

| SMILES | Potency | max response, negative = inhibition |
| --- | --- | --- |
| O=C(NCc1ccc(Cl)cc1)c1ccc(NC(=O)N2CC3CCCN3c3ccccc32)cc1 (stereo not drawn) | inconclusive: 39.8 µM [inhibitor, single point] |  |
| CC1=C(C(=O)OC2CCCCCC2)C(c2ccc(C)o2)C2=C(CCCC2=O)N1 (stereo not drawn) | inconclusive: 39.8 µM [activator, single point] |  |
| COc1ccc(C(=O)Oc2ccc(=O)n(-c3ccccc3)n2)cc1 |  | inactive: -9.54% |
| COCCNc1ncnc2c1cnn2-c1cc(Cl)ccc1C |  | inactive: -5.24% |
| CCC1=Nc2cc(C(=O)NCc3ccccc3OC)ccc2Sc2ccc(Cl)cc21 | active: 31.6 µM |  |
| COc1ccc(-c2cn3cccnc3n2)cc1NC(=O)COc1ccccc1 | inconclusive: 39.8 µM [activator, single point] |  |
| Cc1nc2ccc(NC(=O)c3cccs3)cc2c(=O)n1Cc1ccc(Cl)cc1 | inconclusive: 31.6 µM [inhibitor, single point] |  |
| CCOc1ccc(S(=O)(=O)N2CCN(C(=S)NCc3ccco3)CC2)cc1 |  | inactive: -5.28% |
| COc1ccc(N2C(=O)CSC23C(=O)N(Cc2ccccc2F)c2ccccc23)cc1Cl (stereo not drawn) | inconclusive: 25.1 µM [inhibitor, partial curve] |  |
| COc1ccc(-c2oc3cc(OC)ccc3c2C(=O)c2ccc(C#N)cc2)cc1 | active: 12.6 µM |  |
| CCCCn1c(=N)c(S(=O)(=O)c2ccccc2)cc2c(=O)n3cccc(C)c3nc21 |  | inactive: 14.5% |
| COc1ccccc1C1=NS(=O)(=O)N(C)C(C(=O)Nc2cc(OC)c(OC)c(OC)c2)=C1 | inconclusive: 25.1 µM [inhibitor, single point] |  |
| Cc1ccccc1CNC(=O)c1cccc(NC(=O)c2nsc3ccccc23)c1 | inconclusive: 31.6 µM [inhibitor, single point] |  |
| Cc1ccc(Nc2nc3ccccc3s2)cc1 |  | inactive: 7.6% |
| COc1ccccc1OCC(=O)Nc1nnc(-c2ccco2)s1 | inconclusive: 39.8 µM [inhibitor, single point] |  |
| CCc1c(C)c2cc(Cl)c(O)c(CN(C)C)c2oc1=O | inconclusive: 31.6 µM [inhibitor, single point] |  |
| CS(=O)(=O)c1ccc2nc(NC(=O)c3cc(-c4ccccc4)nn3-c3ccccc3)sc2c1 | inconclusive: 1.58 µM [inhibitor, full curve, poor fit] |  |
| COc1ccc(Cl)cc1-n1c(=S)sc2c(=O)[nH]c(SCC(=O)NCC3CCCO3)nc21 (stereo not drawn) | inconclusive: 39.8 µM [activator, single point] |  |
| CC(C)c1ccc(NC(=O)c2cn(C3CCCCC3)c(=O)c3c2c2ccccc2n3C)cc1 | inconclusive: 3.16 µM [inhibitor, single point] |  |
| COc1ccc(Cl)cc1NC(=O)Nc1cccc([N+](=O)[O-])c1C | inconclusive: 20 µM [activator, single point] |  |
| COCCN1Cc2cccc(C(=O)Nc3ccc(C)c(F)c3)c2C1=O | inconclusive: 39.8 µM [activator, single point] |  |
